# Measured values as given in the antibiotic and cytotoxicity screens of Wong et al. (2023).
# The list shows a part of the results.
# How the values were obtained:
# [1] = tested on: HSkMC (human skeletal muscle cells); experiment: cytotoxicity call (relative viability < 0.9); settings: 10 µM
# [2] = tested on: HepG2; experiment: cytotoxicity call (relative viability < 0.9); settings: 10 µM
# [3] = tested on: S. aureus RN4220; experiment: growth inhibition call (relative growth <= 0.2); settings: 50 µM
Compound,cytotoxicity call [1],cytotoxicity call [2],growth inhibition call [3]
CC(C)NC(=O)Nc1cccc2c1O[C@@H](CN(C)Cc1ccc3c(c1)OCO3)[C@@H](C)CN([C@H](C)CO)C2=O,inactive,inactive,inactive
COC(=O)[C@@]12O[C@@H]1[C@H](O[C@@H]1O[C@H](CO)[C@@H](O)[C@H](O)[C@H]1O)C[C@H]1[C@]3(C)C[C@@H](c4ccoc4)OC(=O)[C@H]3CC[C@]12C,inactive,active,inactive
O=C(C[C@@H]1CC[C@H]2[C@@H](COC[C@H](O)CN2S(=O)(=O)c2ccc(Cl)cc2)O1)NCC1CCCCC1,inactive,inactive,inactive
COc1cccc(S(=O)(=O)N(C)C[C@H]2Oc3cc(C#CCN(C)C)ccc3S(=O)(=O)N([C@@H](C)CO)C[C@@H]2C)c1,inactive,inactive,inactive
C=CCn1c(=O)c2c(nc(NCCO)n2C)n(C)c1=O,inactive,inactive,inactive
Cc1ccc(S(=O)(=O)N2C[C@@H](O)COC[C@H]3O[C@H](CC(=O)NCc4ccc5c(c4)OCO5)CC[C@@H]32)cc1,inactive,inactive,inactive
C[C@@H]1CN([C@@H](C)CO)C(=O)c2cc(C#Cc3ccccc3F)cnc2O[C@H]1CN(C)S(=O)(=O)c1ccccc1,inactive,inactive,inactive
O=c1c(O)c(-c2ccc(O)c(O)c2)oc2c(O[C@@H]3O[C@H](CO)[C@H](O)[C@@H](O)[C@H]3O)c(O)cc(O)c12,inactive,active,inactive
CN1C(=O)c2cc(NC(=O)C3CCOCC3)ccc2OC[C@@H]2O[C@H](CC(=O)NCc3ccc4c(c3)OCO4)CC[C@@H]21,inactive,inactive,inactive
Cc1cc(C)cc(C(=O)N(C)[C@H](Cc2ccc(-c3ccccc3)cc2)C(=O)N[C@@H](Cc2c[nH]c3ccccc23)C(=O)O)c1,inactive,inactive,active
Cc1ccc(S(=O)(=O)N(C)C[C@H]2Oc3cc(C#Cc4ccncc4)ccc3S(=O)(=O)N([C@H](C)CO)C[C@H]2C)cc1,inactive,active,inactive
COc1ccc(S(=O)(=O)N(C)C[C@@H]2Oc3ccc(NS(=O)(=O)c4ccccc4)cc3C(=O)N([C@H](C)CO)C[C@@H]2C)cc1,inactive,inactive,inactive
C[C@H](CO)N1C[C@H](C)[C@H](CN(C)S(=O)(=O)c2ccccc2)Oc2ncc(-c3ccccc3)cc2C1=O,inactive,inactive,inactive
CCC1OC(=O)CC(O)C(C)C(OC2OC(C)C(O)C(N(C)C)C2O)C(CCN2CC(C)CC(C)C2)CC(C)C(=O)C=CC(C)=CC1COC1OC(C)C(O)C(OC)C1OC (centres undefined),inactive,active,active
O=C(C[C@@H]1C[C@H]2c3cc(NC(=O)Cc4ccncc4)ccc3O[C@H]2[C@@H](CO)O1)NCCN1CCCCC1,inactive,inactive,inactive
CCOc1cc(C(C)(C)C)ccc1C1=N[C@@](C)(c2ccc(Cl)cc2)[C@@](C)(c2ccc(Cl)cc2)N1C(=O)N1CCN(CCCS(C)(=O)=O)CC1,active,inactive,inactive
CC(C)NC(=O)N(C)C[C@@H]1Oc2ccc(NC(=O)c3ccncc3)cc2CC(=O)N([C@@H](C)CO)C[C@H]1C,inactive,inactive,inactive
CC(C)(C)c1cccc(N)c1,inactive,inactive,inactive
COc1ccc(NC(=O)Nc2cccc3c2O[C@@H](CN(C)Cc2ccc(Cl)c(Cl)c2)[C@H](C)CN([C@@H](C)CO)C3=O)cc1,inactive,inactive,inactive

Compound,cytotoxicity call [1],cytotoxicity call [2],growth inhibition call [3]
COc1ccc(S(N)(=O)=O)cc1OC,inactive,inactive,inactive
COc1ccc(NC(=O)N(C)C[C@H]2OCCCC[C@@H](C)Oc3ccc(NS(=O)(=O)c4ccccc4)cc3C(=O)N([C@@H](C)CO)C[C@@H]2C)cc1,inactive,inactive,inactive
CCOC(=O)C(=O)NCc1nnnn1-c1ccccc1,inactive,inactive,inactive
Cc1noc(C)c1S(=O)(=O)Nc1ccc2c(c1)CC(=O)N([C@@H](C)CO)C[C@H](C)[C@@H](CN(C)S(=O)(=O)c1cn(C)cn1)O2,inactive,inactive,inactive
Cc1ccc(S(=O)(=O)N(C)C[C@H]2OCCCC[C@H](C)Oc3ccc(NC(=O)CCC(F)(F)F)cc3C(=O)N([C@H](C)CO)C[C@@H]2C)cc1,inactive,inactive,inactive
C[C@@H]1CN([C@H](C)CO)C(=O)c2cccc(NC(=O)Nc3ccc4c(c3)OCO4)c2O[C@@H]1CN(C)S(=O)(=O)c1cn(C)cn1,inactive,inactive,inactive
C[C@@H]1CCCCO[C@@H](CN(C)C(=O)Nc2cccc3ccccc23)[C@H](C)CN([C@@H](C)CO)C(=O)c2cc(NC(=O)Cc3ccccc3)ccc2O1,inactive,inactive,inactive
COc1ccc2c3c(n(c2c1)C)[C@H](CO)N(Cc1ccccc1F)C[C@]13CN(C1)C(=O)C1CCOCC1,inactive,inactive,inactive
C[C@@H]1CN([C@H](C)CO)C(=O)c2cc(NS(C)(=O)=O)ccc2O[C@H]1CN(C)C(=O)Nc1ccc2c(c1)OCO2,inactive,inactive,inactive
Cc1noc(C)c1S(=O)(=O)Nc1ccc2c(c1)CC(=O)N([C@@H](C)CO)C[C@@H](C)[C@@H](CN(C)S(=O)(=O)c1ccc(Cl)cc1)O2,inactive,inactive,inactive
C[C@@H]1CN([C@@H](C)CO)C(=O)c2cc(NS(=O)(=O)c3cccs3)ccc2O[C@@H](C)CCCCO[C@@H]1CN(C)Cc1ccc2c(c1)OCO2,inactive,inactive,inactive
C[C@@H]1CCCCO[C@H](CN(C)C(=O)Nc2ccc(F)cc2)[C@@H](C)CN([C@@H](C)CO)C(=O)c2cc(NC(=O)Cc3ccccc3)ccc2O1,inactive,inactive,inactive
C[C@]12C=C[C@]3(CN(C4CC4)C(=O)C3[C@@H]1C(=O)O)O2 (some centres undefined),inactive,inactive,inactive
C[C@@H]1CCCCO[C@H](CN(C)S(=O)(=O)c2ccc(Cl)cc2)[C@@H](C)CN([C@H](C)CO)C(=O)c2cc(NC(=O)c3ccncc3)ccc2O1,inactive,inactive,inactive
C[C@H]1CCCCO[C@H](CN(C)CC2CC2)[C@@H](C)CN([C@@H](C)CO)C(=O)c2cc(NC(=O)Nc3ccc(C(F)(F)F)cc3)ccc2O1,inactive,inactive,inactive
CC(C)(C)c1ccc(C(=O)Nc2cccc(C(F)(F)F)c2)cc1,inactive,inactive,inactive
Cc1noc(C)c1NC(=O)N(C)C[C@@H]1OCCCC[C@H](C)Oc2ccc(NC(=O)Cc3ccccc3)cc2C(=O)N([C@@H](C)CO)C[C@H]1C,inactive,inactive,inactive
C[C@@H]1CN([C@H](C)CO)C(=O)Cc2cc(N(C)C)ccc2O[C@H]1CN(C)S(=O)(=O)c1ccc(F)cc1,inactive,inactive,inactive
CCC(=O)Nc1ccc2c(c1)C(=O)N(C)C[C@@H](OC)[C@H](C)CN(C(=O)CN1CCOCC1)[C@H](C)CO2,inactive,inactive,inactive
